These results are taken from ChEMBL document CHEMBL4888484, “Replenishing the malaria drug discovery pipeline: Screening and hit evaluation of the MMV Hit Generation Library 1 (HGL1) against asexual blood stage Plasmodium falciparum ,using a nano luciferase reporter read-out” (2022).

In all, about 150,000 compounds went through this assay and about 540 (0.36%) showed an effect of 50% or more. This is one part of the list.

The test system of the experiment is Plasmodium falciparum. The experiment in a line: Primary screen in NF54 nanoGlo assay, in single point, at 2uM, 72h; a lower Z score goes with more inhibition. In kind it is functional, Erythrocyte. As to conditions: timepoint 72 hour.
In the case of `CCn1cc(Cl)c(C(=O)N2CCCC[C@H]2c2nncn2C)n1`, the “% Inhibition” value was -6% and the Z score is recorded as 0.69.
For `CCNC(=O)[C@H]1Cc2ccccc2CN1Cc1ncccn1`, in that order: -4% and 0.46.
With `CC(NC(=O)CN1CCCC(c2nnc3ccccn23)C1)C(=O)N1CCCCC1` (stereo not drawn), the “% Inhibition” value was found to be 9% and the Z score was -1.25.
The matching figures for `CCc1ccc(CN(C)C(=O)Nc2cccc(CN3CCCC[C@@H]3C)c2)nc1`: -6% and 0.95.
The matching figures for `Cc1c(C(=O)N2CCC(C)CC2)c(S(=O)(=O)N2CC(=O)Nc3ccccc32)c(C)n1C`: -7% and 1.23.
As to `O=C(c1ccc(-c2ccccc2)cc1)N(Cc1cccc(Cl)c1)Cc1nc2cc(Cl)ccc2o1`, the “% Inhibition” value is reported as -3% and the Z score came out at 0.28.
The matching figures for `Cc1cc(C)nc(NS(=O)(=O)c2ccc(-n3cnnn3)cc2)n1`: -31% and 3.64.
The matching figures for `Cc1cccc(-c2ncccc2CNS(=O)(=O)Cc2cc(F)cc(F)c2)c1`: -6% and 1.09.
As to `OC[C@H]1CCN(c2ncccc2Cl)C[C@@H]1O`, the “% Inhibition” value was found to be 6% and the Z score is recorded as -0.85.
For `O=C(COc1ccc(Br)cc1)NCCc1nc(-c2ccccc2)no1`, in that order: -1% and 0.21.
The matching figures for `Cc1ncsc1C(=O)N1CCN(CC(C)C)[C@@H]2CS(=O)(=O)C[C@@H]21`: -5% and 0.93.
The matching figures for `CCOC(=O)c1cc(-c2ccc(F)cc2)n(C2CCN(C(=O)c3cc(C(F)(F)F)cc(C(F)(F)F)c3)CC2)n1`: 4% and -0.48.
With `CCc1ccc([C@H](C)NC(=O)c2ccc3[nH]cc(C(=O)C(=O)N4CCCCCC4)c3c2)cc1`, the “% Inhibition” value was 1% and the Z score is -0.23.
The matching figures for `O=C(O)c1cc(-c2cc3ccccc3cc2O)nc2ccc3nn(-c4ccccc4)nc3c12`: 5% and -0.57.
For `Cc1[nH]nc(NS(=O)(=O)[C@@H](C)C(=O)N(C)C)c1CC(C)C`, in that order: -4% and 0.7.
For `COc1ccc(-n2nc(C)c([C@@H]3C=C[C@@H](NCc4ccc(N(C)C)cc4)C3)c2C)cc1`, in that order: -4% and 0.66.
In the case of `CCCN(CCc1cccc(F)c1)C(=O)Nc1cccc(N2CCOC2=O)c1C`, the “% Inhibition” value was -11% and the Z score was determined as 1.34.
For `Cn1cc(S(=O)(=O)N(CCO)C2CCC2)cc1C(N)=O`, the “% Inhibition” value was -13% and the Z score worked out at 1.14.
On to `CCN1CCC(NC(=O)c2cc3c(s2)CCCCC3)CC1`, for which the “% Inhibition” value is -9% and the Z score is listed as 1.28.
The matching figures for `CC(C)N1C[C@@H](C(=O)Nc2ccc(-n3cc(Br)cn3)nc2)CC1=O`: 3% and -0.49.
Turning to `Cc1cccc(-c2ccnc3nc(N4CCN(C(=O)c5cc(F)ccc5C)CC4)nn23)c1`, the “% Inhibition” value is reported as -6% and the Z score is reported as 0.56.
As to `CS(=O)(=O)N1CCc2[nH]cnc2C12CCN(c1ncccn1)CC2`, the “% Inhibition” value is -11% and the Z score was 2.01.
For the compound `Cc1cc(C)n2ncc(CN(C)CCc3scnc3C)c2n1`, the “% Inhibition” value is -2% and the Z score is 0.36.
The matching figures for `O=C(Nc1ccc(C(=O)N2CCc3sccc3C2)cc1)c1cccs1`: -7% and 1.36.
Turning to `O=C(CO)N1C(=O)COc2ccccc21`, the “% Inhibition” value is recorded as -43% and the Z score is recorded as 5.1.
For `COc1ccc(-c2cc(CO)ncc2F)c(OC)n1`, in that order: -11% and 1.58.
The matching figures for `O=C1C[C@H](NC(=O)NCc2cccs2)CN1`: -11% and 2.21.
Take `CCCN(CCc1cccc(F)c1)C(=O)N[C@H]1CCn2ccnc21`: the “% Inhibition” value was found to be 14% and the Z score is -2.05.
`Cc1ccccc1CC(=O)N1CC2(C[C@@H](C(=O)NC(C)C)N(C)C2)C1`: the “% Inhibition” value is reported as -7% and the Z score worked out at 0.87.
For `Cn1ccc(CCNC(=O)[C@@H]2COCCN2CC(F)F)n1`, in that order: 5% and -0.78.
The matching figures for `NC[C@H]1CCCN1C(=O)Cc1c(Cl)cccc1Cl`: -1% and 0.18.
The matching figures for `O=C1c2ccccc2[C@H]2NC(=O)C3(CCCCC3)N12`: -1% and 0.11.
`COC[C@@](C)(O)CNC(=O)NCc1ccccc1`: the “% Inhibition” value was -3% and the Z score was determined as 0.49.
With `COC(=O)c1csc(-n2nc(-c3ccc(C)cc3)cc2NC(C)=O)n1`, the “% Inhibition” value was 4% and the Z score is reported as -0.78.
The matching figures for `Cn1ccc2ccc(NCC(=O)N3CCCCC3)cc2c1=O`: -8% and 0.94.
In the case of `COCc1ccc(CN2CCC(CCC(=O)N(C)Cc3ccccc3)CC2)o1`, the “% Inhibition” value stood at 8% and the Z score was -0.99.
For `FC(F)(F)c1cnc(N2CCC(n3ccnn3)CC2)s1`, in that order: -9% and 0.95.
The matching figures for `CCN(c1ccnc(N)n1)C1CCCC1`: 4% and -0.45.
The matching figures for `CCn1cc(C)c(C(=O)O)c1CC(=O)NC1CCCCC1`: -3% and 0.4.
For the compound `CCc1nc(Cn2ncn3cccc3c2=O)cs1`, the “% Inhibition” value is recorded as -11% and the Z score was determined as 2.11.
As for `C[C@@H](c1ccccc1)n1cnc2c1c(=O)n(CCc1ccccc1)c(=O)n2-c1ccc(Cl)cc1`, the “% Inhibition” value stood at 2% and the Z score was -0.43.
The matching figures for `Nc1nnnn1NCc1cc(Br)ccc1OCc1ccccc1Cl`: -41% and 4.84.
The matching figures for `CCNC(=O)CNC(=O)N1CCC(Cc2ccccc2)C1C` (stereo not drawn): -10% and 2.01.
The matching figures for `Cc1ccc(Cn2cccc2CN(Cc2ccccc2C#N)CC2CCCCC2)cc1`: -4% and 0.75.
Turning to `CC1CC(NC2CCCC(S(C)(=O)=O)C2)CC(C)(C)C1` (stereo not drawn), the “% Inhibition” value was -2% and the Z score is 0.15.
For `COC(=O)[C@@H]1CCCN1CC(=O)N(CC(F)(F)F)C(C)C`, in that order: -3% and 0.36.
As for `CC(C)c1csc(CCNC(=O)C[C@H]2CN(C(C)C)CCO2)n1`, the “% Inhibition” value was -15% and the Z score is on record as 2.91.
The matching figures for `O=C1NC[C@H]2CN(Cc3ccc(OC(F)F)c(Cl)c3)CCN12`: 7% and -0.68.
The matching figures for `O=C(NCCC(F)(F)F)[C@@H]1NCCOc2ccccc21`: 5% and -0.85.
Take `Cc1noc2nc(C3CC3)cc(C(=O)N3CCc4sccc4C3)c12`: the “% Inhibition” value is recorded as -1% and the Z score worked out at 0.11.
For `CC(C)c1nc(CCNC2CCCCC2S(C)(=O)=O)cs1` (stereo not drawn), in that order: -1% and 0.25.
For `CC1(C)C2CC=C(CNc3ccc4c(c3)OCO4)C1C2` (stereo not drawn), in that order: 2% and -0.35.
Regarding `Cc1ncncc1C(=O)N1C[C@H]2CC[C@@H](C1)N(Cc1c(C)noc1C)C2=O`, the “% Inhibition” value is given as -14% and the Z score is recorded as 1.81.
For `CC1=C(C(=O)Nc2cccc(C(F)(F)F)c2)[C@H](c2ccc3c(c2)OCO3)NC(=O)N1`, in that order: -1% and 0.11.
The matching figures for `c1ccc(CN2CCC(N3CC(c4cccnc4)C3)CC2)cc1`: -7% and 1.39.
On to `Cc1cccc(C(=O)N[C@@H](CC(C)C)C(=O)O)c1`, for which the “% Inhibition” value is -13% and the Z score was determined as 1.71.
The matching figures for `N#Cc1c2ccc(O)cc2n2ccccc12`: 32% and -4.16.
For `CC(C)c1ccc(N2CC(=O)N[C@H](C)C2)nn1`, in that order: 2% and -0.31.
For `O=C(COc1ccc(F)cc1)N1CCC2(CC1)C[C@H](CO)N(C(=O)c1ccccc1)C2`, in that order: -1% and 0.1.
In the case of `CCOC(=O)NCCC(=O)NC[C@](C)(O)c1ccccc1Br`, the “% Inhibition” value is -1% and the Z score is reported as 0.2.
For `CCCc1[nH]c(C)cc(=O)c1C(=O)OC`, in that order: -6% and 0.61.
For `CNS(=O)(=O)C[C@H]1CCCN1C(=O)CC(C)(C)OC`, in that order: -7% and 0.8.
The matching figures for `CC(C)C1N(C(=O)N2CCOCC2)C(C)CN1S(=O)(=O)c1ccccc1` (stereo not drawn): -8% and 0.94.
For the compound `COc1cc2c(cc1OC)[C@@H]1CN(C(=O)c3c(-c4c(F)cccc4Cl)noc3C)CC(=O)N1CC2`, the “% Inhibition” value is on record as -19% and the Z score is 3.
For `CCC(=O)N1CCN(C(=O)Cc2ccc(C)c(C)c2)[C@H]2CS(=O)(=O)C[C@H]21`, in that order: -12% and 1.11.
The matching figures for `Cc1n[nH]cc1CN1C(=O)[C@@H]2CCCCN2C1=O`: -6% and 0.7.
The matching figures for `c1ccc2c(c1)CC[C@H]2n1ccnc1-c1cc2n(n1)CCCNC2`: -20% and 2.85.
On to `Cc1ccc(NC(=O)CN2CCn3nnc(-c4nc(-c5ccsc5)no4)c3C2=O)c(C)c1`, for which the “% Inhibition” value is on record as -9% and the Z score is given as 1.69.
The matching figures for `CC1CC(C)CN(C(=O)c2ccc(NC(=O)c3ccccc3)cc2)C1` (stereo not drawn): -7% and 0.98.
As to `CO[C@@H]1CCC[C@@H]2CN(Cc3c[nH]nc3-c3cccs3)C[C@@H]21`, the “% Inhibition” value is given as -1% and the Z score was 0.12.
With `O=S(=O)(c1ccccc1Cl)N1CC(c2ccccc2)C(c2ncon2)C1` (stereo not drawn), the “% Inhibition” value is reported as -3% and the Z score is on record as 0.51.
For `CCN(CC)S(=O)(=O)c1ccc2c(c1)N(CCCC(=O)N1CCCC1)C(=O)[C@@H]1CCCN21`, in that order: 1% and -0.24.
For `CCc1nccn1CCC(=O)N1C[C@H](C(=O)O)[C@@H](c2ccccn2)C1`, in that order: -8% and 1.55.
For `CCc1ccc(C2=C(C)C(N3CCCN(C(=O)c4ccncc4)CC3)=NS2(=O)=O)cc1`, in that order: -12% and 1.88.
Take `CC(C)(C)OC(=O)N1CCc2oncc2C1`: the “% Inhibition” value was -9% and the Z score worked out at 1.1.
`CC(C)c1nncn1CCNC(=O)c1cnc(-c2ncccn2)s1`: the “% Inhibition” value is on record as -5% and the Z score is on record as 0.67.
The matching figures for `CCCCCOCC(=O)N1CC(O)(C(N)=O)C1`: 5% and -0.82.
For `COc1ccc(Oc2c(N(C)C)cnn(-c3ccc(C)cc3)c2=O)cc1`, the “% Inhibition” value is listed as 20% and the Z score is recorded as -2.54.
The matching figures for `O=C(NCc1ccccc1)N1CCC[C@H]1c1nc2ccccc2s1`: -10% and 1.27.
For `CCN(Cc1nc2cc(Cl)ccc2c(=O)[nH]1)C[C@H](O)COc1ccc(-c2ccccc2)cc1`, in that order: -4% and 0.55.
The matching figures for `O=C(N[C@@H](CN1CCCC1)c1ccccc1)N1CCC(c2ccn[nH]2)CC1`: 50% and -8.21.
For the compound `CCOC1CC(Cc2nc(Cc3ccc4[nH]ncc4c3)no2)C1` (stereo not drawn), the “% Inhibition” value is given as 5% and the Z score is reported as -0.61.
For `CCCNC(=O)Cc1ccc(N(Cc2ccc(C)cc2)C(=O)CC)cc1`, in that order: 0% and 0.02.
For `Cc1ccc([C@@]2(C)CC(=O)N(Cc3ncc(C4CC4)o3)C2=O)cc1`, in that order: 5% and -0.7.
